Assay results reported in publication PMC4336329 (PLoS ONE, 2015).
The campaign covered roughly 310,000 compounds. About 2,200 (0.71%) showed an effect of 50% or more. Effects have a minus sign here. The list shows a part of the results.

biological target: human ether-à-go-go-related gene (hERG) potassium channel (human, UniProt Q12809); test: primary screen, population patch clamp on CHO cells stably expressing hERG
Sequence (Q12809 whole entry, looked up): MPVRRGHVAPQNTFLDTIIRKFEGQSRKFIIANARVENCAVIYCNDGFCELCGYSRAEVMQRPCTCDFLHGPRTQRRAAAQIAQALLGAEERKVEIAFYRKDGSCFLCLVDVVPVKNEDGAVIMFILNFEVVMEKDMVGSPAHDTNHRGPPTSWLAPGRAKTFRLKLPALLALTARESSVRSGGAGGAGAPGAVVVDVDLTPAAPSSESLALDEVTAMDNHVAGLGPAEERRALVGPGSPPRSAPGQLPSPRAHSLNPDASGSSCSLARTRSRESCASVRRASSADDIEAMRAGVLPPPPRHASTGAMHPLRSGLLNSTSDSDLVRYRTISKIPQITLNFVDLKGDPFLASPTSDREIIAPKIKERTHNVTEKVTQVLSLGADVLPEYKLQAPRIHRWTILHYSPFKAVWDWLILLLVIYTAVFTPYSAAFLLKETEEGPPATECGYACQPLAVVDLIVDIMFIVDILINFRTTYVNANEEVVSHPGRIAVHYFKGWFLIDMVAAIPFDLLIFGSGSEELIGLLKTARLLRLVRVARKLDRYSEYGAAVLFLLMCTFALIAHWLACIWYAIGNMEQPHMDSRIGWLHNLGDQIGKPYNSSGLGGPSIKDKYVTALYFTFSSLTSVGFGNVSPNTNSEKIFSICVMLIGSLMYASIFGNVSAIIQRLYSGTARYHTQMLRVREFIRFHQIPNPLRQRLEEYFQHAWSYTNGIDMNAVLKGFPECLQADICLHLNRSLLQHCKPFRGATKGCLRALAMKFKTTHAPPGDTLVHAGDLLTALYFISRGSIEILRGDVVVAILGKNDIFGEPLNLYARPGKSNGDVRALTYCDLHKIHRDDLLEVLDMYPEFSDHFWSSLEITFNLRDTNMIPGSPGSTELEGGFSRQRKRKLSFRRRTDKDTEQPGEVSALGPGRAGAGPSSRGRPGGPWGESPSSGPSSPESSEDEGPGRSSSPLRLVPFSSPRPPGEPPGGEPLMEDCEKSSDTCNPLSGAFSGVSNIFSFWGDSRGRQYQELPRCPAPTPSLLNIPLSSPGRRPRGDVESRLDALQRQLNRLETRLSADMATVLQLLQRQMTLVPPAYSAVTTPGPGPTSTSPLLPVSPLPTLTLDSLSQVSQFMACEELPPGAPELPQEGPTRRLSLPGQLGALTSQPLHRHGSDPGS

SMILES | hERG current change (%, negative = inhibition) at 1uM
Cc1cc(C)c(C)c(S(=O)(=O)N2CCN(C(=O)C3CSC4(C)CCC(=O)N34)CC2)c1C (centres unmarked) | 14.2%
COc1ccc(CNC(=O)Cn2cc([N+](=O)[O-])nc2C)cc1 | 11.8%
CCOC(=O)c1c(NC(=O)c2cc(C)oc2C)sc(C(=O)Nc2ccc(Cl)cc2)c1C | 18.1%
CCS(=O)(=O)c1nc(S(=O)(=O)c2ccc(Cl)cc2)c(N2CCOCC2)s1 | 17.1%
O=C(NCC1OCCc2ccccc21)c1cc(COc2ccc(F)cc2Cl)on1 (centres unmarked) | 6.87%
Cc1cccc(C)c1NC(=O)C(c1ccc(Cl)cc1Cl)N1CCCCC1 (centres unmarked) | 11.5%
Cc1c(C(=O)N2CCC(C(N)=O)CC2)sc(N)c1C#N | 8%
Cc1ccc(CCN2CC(C(=O)NC(C)C)CC2=O)cc1 (centres unmarked) | 14.9%
O=C(Nc1ccccc1N1CCCC1)c1cccc(Cl)c1Cl | 10.3%
O=C(c1ccc(F)cc1)N1CCN(Cc2ccccc2Br)CC1 | 5.9%
O=C(CCc1nc2ccccc2[nH]1)NC1CCCCC1 | 12.8%
CC(C)c1ccc(NC(=O)CSc2nnc(-c3ccccn3)n2C)cc1 | -4.65%
CC(=O)N1CC2(C)CN(C(C)=O)CC(C)(C1)C2 | 23.7%
CCCC(=O)Nc1ccc(C(=O)N/N=C/c2ccc[nH]2)cc1 | 15.7%
COc1ccc(C2(CNC(=O)C(=O)Nc3ccc(C)cc3)CCOCC2)cc1 | 13.4%
CC(C)(C)OC(=O)[C@H](Cc1ccccc1)NC(=O)c1nc[nH]c1C(=O)N1CCN(c2ccccc2)CC1 | 9.51%
O=C(NCc1cccnc1)c1cc(C(=O)C2CC2)c[nH]1 | 10.7%
CCOC(=O)CN1C(=O)C(Sc2n[nH]c(-c3ccc(C)cc3)n2)CCc2ccccc21 (centres unmarked) | 5.54%
COc1ccc(NC(=O)CCN2CCN(S(=O)(=O)c3ccc(Cl)cc3)CC2)cc1 | 2.03%
COc1cc(N2CCCC2)c(OC)cc1C=O | 13.2%
O=C(OCc1cnc(Cl)s1)c1ccc(Cl)cc1 | 2.91%
Cc1[nH]n(-c2ccccc2)c(=O)c1N=Nc1cccc([N+](=O)[O-])c1 | 4.2%

SMILES | hERG current change (%, negative = inhibition) at 1uM
O=C1Nc2cc(Cl)c(Cl)cc2N(O)N1c1ccc(Cl)c(Cl)c1 | -8.17%
CC(=O)N1CCN(S(=O)(=O)c2cccc(C(=O)Nc3ccc4c(c3)CCC4)c2)CC1 | -4.54%
COc1ccccc1N(CC(=O)N(C)Cc1ccccc1)S(=O)(=O)c1cccs1 | 11.2%
CCc1cc(C)c(O)c(CC)n1 | -9.13%
COc1ccc(S(=O)(=O)N(C)C)cc1NCC(=O)Nc1ccc(Br)cc1F | -8%
Clc1cccc(CN2COc3c(cc(Cl)c4cccnc34)C2)c1 | 12.7%
CSCCC(NC(N)=O)C(=O)NCc1cccc(Cl)c1 (centres unmarked) | 7.67%
O=C(c1ccc(CS(=O)c2ccccc2Cl)o1)N1CCN(c2ccccc2)CC1 (centres unmarked) | -19.4%
O=C(CSc1ccccn1)Nc1nonc1[N+](=O)[O-] | 6%
Cc1ccc2nc(SCc3cccc([N+](=O)[O-])c3)nc(C)c2c1 | 0.472%
COc1ccc(-c2noc(COc3ccc(Cl)c(C)c3)n2)cc1 | 5.91%
CCCCCn1c(CN2CCN(Cc3ccccc3)CC2)nc2c1c(=O)n(C)c(=O)n2C | -57.9%
Cl.OC1(c2ccc(F)cc2)CCN(Cc2ccccc2)C1 (centres unmarked) | 7.08%
COc1ccc(S(=O)(=O)Nc2cc(S(=O)(=O)c3ccccc3)c(O)cc2C)cc1 | 9.14%
CCOc1ccc(C(C(=O)NCC2CCCO2)N(Cc2cccc(OC)c2)C(=O)c2snc(C(N)=O)c2N)cc1 (centres unmarked) | -2.85%
CCCCCCN1C2=NCCN2c2ccccc21.Cl | -82.3%
Cc1ccsc1-c1nc(CSCC(=O)NCCN2CCCC2)c(C)o1 | -8.26%
CS(=O)(=O)NCCOc1ccc(S(=O)(=O)NCCOc2ccccc2)cc1 | 4.8%
O=C(CCc1ccccc1)N1CCN(Cc2ccc(F)cc2Cl)CC1 | 3.86%
Cc1ccc(C2=NN3C(C(=O)c4ccccc4)Oc4ccccc4C3C2)cc1 (centres unmarked) | -0.34%
COC(=O)C[C@H]1c2cc(C(F)(F)F)ccc2S(=O)(=O)N1Cc1ccccc1 | 2.87%
Cc1ccc(-c2sc(C(=O)NN)c(C)c2C#N)cc1 | 10.5%

SMILES | hERG current change (%, negative = inhibition) at 1uM
O=C(Nc1ccc(N2CCOCC2)cc1N1CCOCC1)c1cccc([N+](=O)[O-])c1 | 7.77%
COc1ccc(CCN2C(=O)CC(C(C)c3ccccc3)C2=O)cc1OC (centres unmarked) | -6.92%
O=C(O)c1ccccc1-c1ccccc1C(=O)NCc1ccco1 | 13%
O=C(N[C@@H](Cc1ccc(O)cc1)C(=O)O)c1ccncc1 | 16%
Cc1ccc(N(CC(=O)Nc2ccc(Br)c(C)c2)S(=O)(=O)c2c(C)[nH]c(=O)[nH]c2=O)cc1 | 11.7%
CC1(C)CC2CC(C)(CN2C(=O)COC(=O)c2ccc(Cl)c(N)c2)C1 (centres unmarked) | 4.41%
CCOc1ccc(S(=O)(=O)N2CCCCC2)cc1NC(=O)C1=COCCO1 | 9.8%
Cn1nc(N)c2c(-c3ccc(Cl)cc3)c(C#N)c(N)nc21 | 3.77%
CC(C)(C)c1cc(C(=O)N/N=C/c2ccccc2O)n(-c2ccccc2)n1 | 11%
CN(C)C(CNC(=O)CSc1nc2sc3c(c2c(=O)n1C)CCCC3)c1ccccc1 (centres unmarked) | 9.16%
O=C(NCCc1csc(-c2cccnc2)n1)c1ccccc1 | 14.3%
Cn1cnc(Sc2ncnc3nc[nH]c23)c1[N+](=O)[O-] | 15.4%
COc1ccc(CC(=O)O/N=C(\N)Cc2cccc3ccccc23)cc1OC | 12.2%
C/C=C\C=C/C(=O)Nc1cccc(C2=NOC3(C2)C[C@H](C(N)=O)N(C(=O)Cc2ccc([N+](=O)[O-])cc2)C3)c1 (some centres unmarked) | 10.4%
CCCOC(=O)C[N+](C)(C)CCOC1CC2CCC1(C)C2(C)C.[Br-] (centres unmarked) | 11.2%
Cc1cccc(CSCCNC(=O)CN2C(=O)c3ccccc3S2(=O)=O)c1 | 13.5%
CCCc1nc2nc(C)c(NS(=O)(=O)c3ccc(CC(C)C)cc3)c(=O)n2[nH]1 | 9.49%
Cc1csc(-c2cnn(-c3ccccc3)c2NC(=O)c2ccc(C(F)(F)F)cc2)n1 | 12.6%
O=C(CSC1=NCCS1)N1CCCC1 | 19.5%
O=C(c1ccco1)N1CCN(C(=O)c2nn3cccnc3c2Cl)CC1 | 18.4%
O=C(Nc1nnc(SCc2c(Cl)cccc2Cl)s1)C1CC(=O)N(c2ccc3c(c2)OCCO3)C1 (centres unmarked) | 1.19%
Cc1onc(-c2ccccc2Cl)c1C(=O)Nc1ccc(S(=O)(=O)NCC2CCCO2)cc1 (centres unmarked) | 5.88%

SMILES | hERG current change (%, negative = inhibition) at 1uM
Cc1cc(-c2ccccc2)n(-c2ccc(C(=O)N3CCN(c4ncccn4)CC3)cc2)n1 | -6.92%
CCOC(=O)C1(Cc2cccc(F)c2)CCN(C(=O)c2ccoc2C)CC1 | 7.58%
CCCN(C(=O)c1c(-c2ccccc2)noc1C)c1c(N)n(Cc2ccccc2)c(=O)[nH]c1=O | 4.65%
CCOC(=O)C1CCN(C(=S)Nc2ccc(S(N)(=O)=O)cc2)CC1 | 6.52%
COc1ccc(C2(O)CCN(Cc3nnnn3Cc3ccc(C)cc3)CC2)cc1 | 6.65%
COc1ccc(CNC(=O)CN(C(=O)CCC(=O)Nc2ccccn2)c2cccc(C)c2)cc1 | 7.29%
O=C(CNC(=O)[C@@H]1Cc2ccccc2CN1)NC1CCCC1 | 20.2%
c1ccc(CN2CN=C(Nc3nc4ccccc4s3)NC2)cc1 | -13.4%
COc1ccccc1N(CC(=O)NC1CCCC1)C(=O)C1(C)CC(=O)N=C2C=CC(C)=CN21 (centres unmarked) | 4.88%
CCOC(=O)C1CCN(S(=O)(=O)c2cc(Br)cc3c2N(C(C)=O)C(C)C3)CC1 (centres unmarked) | 1.96%
O=C(Nn1cnnc1)c1ccc(OC(F)(F)C(F)C(F)(F)F)cc1 (centres unmarked) | 9.24%
CC(C)[C@@H]1NC(=O)c2cc([N+](=O)[O-])cc(I)c2OCC[C@@H](C(N)=O)NC(=O)[C@H](CCC(=O)O)NC1=O | 5.54%
N#Cc1c(NCCCO)nc(-c2ccco2)c2c1CCCC2 | -0.659%
COC(=O)c1ccc(CN2CCN(CCCc3ccccc3)C(CCO)C2)cc1 (centres unmarked) | -29.1%
CC1CCN(S(=O)(=O)c2ccc(NC(=O)[C@@H]3CCCC[C@@H]3C(=O)O)cc2)CC1 | 4.24%
CCOC(=O)c1sc(NC(=O)Nc2ccc(F)cc2)nc1C | 12.2%
Cc1cc(C)cc(NC(=O)NCC(O)COc2ccc([N+](=O)[O-])cc2)c1 (centres unmarked) | 1.59%
COc1ccc(C(=O)NNC(=O)Nc2ccc(C)cc2)cc1 | 4.94%
CCCc1cc(=O)oc2cc(OCc3ccc(OC)cc3)c(Cl)cc12 | 12.3%
Cc1nn(Cc2ccc(C(=O)Nc3nc4c(C)cccc4s3)o2)c(C)c1Br | 11.6%
